# Screen size: about 340,000 compounds; about 6,900 (2%) were called active. Rule as the data show it: active = inhibition above about 30%; inactive = below that, where a call was filed. This is a selection; strong and weak results do not stand in their true shares. The source gives no active or inactive call for entries shown without one.
# Biological target: D(2) dopamine receptor (Homo sapiens) (UniProt P14416)
# Test: HTS Assay for Allosteric Antagonists of the Human D2 Dopamine Receptor: Primary Screen for Antagonists; also: 0% is about no effect
# Settings: HEK293 TREx D2 cells, calcium flux, dopamine EC80; at 10 µM; stronger effect = higher value
# Outline: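 Overnight-induced (tetracycline, 30 C) HEK293 T-REx cells carrying force-coupled D2 receive a no-wash calcium dye, then compound, then EC80 dopamine at 180 s; signals are read kinetically throughout.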
# Chain of UniProt P14416 (P14416 whole entry, looked up): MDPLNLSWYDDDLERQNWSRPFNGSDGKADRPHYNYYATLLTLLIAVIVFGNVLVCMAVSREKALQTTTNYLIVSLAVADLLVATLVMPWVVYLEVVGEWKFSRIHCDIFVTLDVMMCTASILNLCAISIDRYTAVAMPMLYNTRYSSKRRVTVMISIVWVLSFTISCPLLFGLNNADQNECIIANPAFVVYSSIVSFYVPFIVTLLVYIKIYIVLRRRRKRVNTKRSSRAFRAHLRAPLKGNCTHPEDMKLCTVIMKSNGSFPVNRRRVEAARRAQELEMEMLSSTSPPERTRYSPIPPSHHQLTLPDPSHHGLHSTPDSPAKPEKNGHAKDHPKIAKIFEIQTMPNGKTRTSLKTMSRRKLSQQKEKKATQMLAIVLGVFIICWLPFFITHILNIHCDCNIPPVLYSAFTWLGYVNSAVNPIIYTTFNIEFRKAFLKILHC
row,Structure (SMILES),inhibition
1,Cc1cc(C)c2c(CC(=O)Nc3ccc(F)cc3)coc2c1,-6.55%
2,Cc1ccc(-n2nc(C)c3nc(CCC(=O)Nc4cccc(C)c4C)c(=O)n(C)c32)cc1,2.54%
3,Cc1cccc(N2C(=O)N(Cc3cc(=O)n4ccccc4n3)c3ccccc3S2(=O)=O)c1,-12.3%
4,Cc1ccc2c(c1)C(=O)OC(C(=O)Nc1ncc(Cc3ccccc3Cl)s1)C2 (centres undefined),-7.65%
5,Cc1ccc(-c2cc(-c3ccc4c(c3)NC(=O)CO4)nc3c2COc2ccccc2-3)cc1,15.7%
6,CCn1c(Cc2ccccc2)nnc1SCC(=O)Nc1ccccc1O,active: 40%
7,COc1ccc2c(c1)c1c(c(=O)n(-c3ccc(F)c(Cl)c3)c(=O)n1Cc1cccc(C)c1)n2C,-1.95%
8,Cc1c(CCC(=O)NCCc2ccccc2)c(=O)oc2cc(O)ccc12,-7.15%
9,Cc1ccc(C(=O)Nc2c(C(=O)NC(C)(C)C)oc3ccccc23)cc1,9.43%
10,C=CCNC(=O)Nc1cc(Cl)ccc1OC,active: 38.4%
11,Cc1cccc(C(=O)Nc2ccc3oc(-c4cccc5c(Br)cccc45)nc3c2)c1,-1.34%
12,CCc1ccc(NC(=O)C2CCN(c3nc(-c4ccc(OC)cc4)no3)CC2)cc1,-0.272%
13,Cc1cc(OCC(=O)Nc2ccc(C(=O)OC3CCCCC3)cc2)cc(C)c1Cl,-6.08%
14,COc1ccc(CCNCc2c(C(=O)O)c(C)n(Cc3c(F)cccc3Cl)c2C)cc1OC,20.9%
15,COc1ccc2c(c1)CC(C(=O)NCc1ccc(F)cc1)CO2 (centres undefined),-0.75%
16,CCCOC(=O)Nc1cccc(C(C)=O)c1,active: 35.2%
17,Cc1nnc(NC(=O)CSc2nc3c([nH]c4ccccc43)c(=O)n2-c2ccc(Cl)cc2)s1,-3.94%
18,Cc1ccc2[nH]c(=O)c3cc(C(=O)N(C)c4ccc(Br)cc4)sc3c2c1,-4.21%
19,CC(=O)Nc1cc(C(=O)NCc2ccccc2Cl)ccc1Sc1ccc(F)cc1,6.8%
20,Cc1ccc(NC(=O)c2cc(S(=O)(=O)N3CCCCC3)c[nH]2)cc1N(C)C,2.07%
21,Cc1cc(C)cc(NC(=O)c2cc(S(=O)(=O)NCCC3=CCCCC3)ccc2F)c1,-2.38%
22,COc1ccc(NC(=O)Cn2c3ncccc3c(=O)n2-c2ccc(C)c(C)c2)c(OC)c1,3.68%
23,CCOCCCNC(=O)C(c1ccc(OC)cc1)N(Cc1ccc2c(c1)OCO2)C(=O)c1ccc(NC(C)=O)cc1 (centres undefined),-1.9%
24,O=S(=O)(Nc1ccc2nc(-c3ccc(F)cc3)oc2c1)c1ccccc1,5.1%
25,CCCCc1nn2c(=O)cc(COC(=O)c3ccc(NC(=O)c4ccccc4Cl)cc3)nc2s1,-3.07%

row,Structure (SMILES),inhibition
1,COc1cccc(CNC(=O)c2ccc3nc(N4CCCCC4)sc3c2)c1OC,1.91%
2,COc1cccc(CNC(=O)C(NS(=O)(=O)c2cccs2)C(C)C)c1 (centres undefined),-9.49%
3,Cc1ccc(CN2CCSc3ccc(C(=O)N4CCN(c5ccc(Cl)cc5)CC4)cc32)cc1,-11.9%
4,COc1ccccc1NC(=O)c1cc(S(=O)(=O)NCCc2ccccc2)ccc1F,3.04%
5,CCCCN1C(=O)c2[nH]nc(-c3ccccc3O)c2C1c1cc(Br)c(O)c(OC)c1 (centres undefined),-9.51%
6,CCOc1ccc(CCNC(=O)Cn2ncn3c(cc4sc(C)cc43)c2=O)cc1OCC,-4.53%
7,CC1CCC(NC(=O)c2ccc3c(c2)N(Cc2ccccc2F)C(=O)c2ccccc2S3=O)CC1 (centres undefined),-0.751%
8,O=C(NCc1ccccc1)C(=O)NCC(c1ccc2c(c1)OCO2)N1CCOCC1 (centres undefined),-0.811%
9,CCN1CCN(c2oc(/C=C/c3ccc(OC)c(OC)c3)nc2C#N)CC1,0.961%
10,COc1ccc2c(c1)sc1ncc(C(=O)NCc3ccc(Cl)cc3)c(=O)n12,-3.31%
11,Clc1ccc(-c2cn3ncsc3n2)cc1,23%
12,COc1ccc(S(=O)(=O)/C(C#N)=C/Nc2ccccc2F)cc1,active: 39.8%
13,COc1ccc(-n2cc(C(=O)OCc3ccc(F)c(F)c3)c3ccccc3c2=O)cc1,0.789%
14,CCc1ccc(NS(=O)(=O)c2ccc3[nH]cc(C(=O)NCCc4cccc(C)c4)c(=O)c3c2)cc1,2.2%
15,CCOc1ccc(-n2c(=O)c3sc4ccccc4c3n(Cc3cccc(C)c3)c2=O)cc1,-16.7%
16,O=C(NC1(C(F)(F)F)C(=O)Nc2c1c(=O)[nH]c(=O)n2-c1ccc(F)cc1)c1ccccc1 (centres undefined),0.474%
17,COc1ccc(C2C(=O)N(C3CCCCC3)CC(=O)N2CCC2=CCCCC2)cc1 (centres undefined),-3.28%
18,Cc1cccc(N2CCN(C(=O)CCc3c(C)nc4c(c3C)c(=O)n(C)c(=O)n4C)CC2)c1C,20.2%
19,Cc1ccc(OC(=O)c2cc(-c3ccc(Cl)cc3)on2)c(C)c1,-20.1%
20,Cc1ccc(-c2nc(NC(=O)CSc3ncnc4sc5c(c34)CCC(C)C5)ns2)cc1 (centres undefined),8.36%
21,CCOc1ccc(N(CC)S(=O)(=O)N2CCCC(C(=O)Nc3ccc(OC)c(OC)c3)C2)cc1 (centres undefined),-10%
22,CCn1cc2nc(SCc3ccccc3Cl)n(CCc3ccccc3)c(=O)c2n1,-5.91%
23,Cc1ccc(NC(=O)CCNS(=O)(=O)c2ccc(Br)s2)cc1,-5.03%
24,CCOC(=O)C1CCCN(C(=O)c2cccc(NC(=O)c3nsc4ccccc34)c2)C1 (centres undefined),7.45%

# From PubChem BioAssay AID485344 (National Center for Advancing Translational Sciences (NCATS), 2010)
